Measured values: article PMC4336329 (PLoS ONE, 2015)
About 2,200 (0.71%) of roughly 310,000 compounds showed an effect of 50% or more. The effect is printed as a negative number. The list shows a part of the results.

Target: human ether-à-go-go-related gene (hERG) potassium channel (human, UniProt Q12809)
Assay: primary screen, population patch clamp on CHO cells stably expressing hERG

Chain of human ether-à-go-go-related gene (hERG) potassium channel (Q12809 whole entry, looked up): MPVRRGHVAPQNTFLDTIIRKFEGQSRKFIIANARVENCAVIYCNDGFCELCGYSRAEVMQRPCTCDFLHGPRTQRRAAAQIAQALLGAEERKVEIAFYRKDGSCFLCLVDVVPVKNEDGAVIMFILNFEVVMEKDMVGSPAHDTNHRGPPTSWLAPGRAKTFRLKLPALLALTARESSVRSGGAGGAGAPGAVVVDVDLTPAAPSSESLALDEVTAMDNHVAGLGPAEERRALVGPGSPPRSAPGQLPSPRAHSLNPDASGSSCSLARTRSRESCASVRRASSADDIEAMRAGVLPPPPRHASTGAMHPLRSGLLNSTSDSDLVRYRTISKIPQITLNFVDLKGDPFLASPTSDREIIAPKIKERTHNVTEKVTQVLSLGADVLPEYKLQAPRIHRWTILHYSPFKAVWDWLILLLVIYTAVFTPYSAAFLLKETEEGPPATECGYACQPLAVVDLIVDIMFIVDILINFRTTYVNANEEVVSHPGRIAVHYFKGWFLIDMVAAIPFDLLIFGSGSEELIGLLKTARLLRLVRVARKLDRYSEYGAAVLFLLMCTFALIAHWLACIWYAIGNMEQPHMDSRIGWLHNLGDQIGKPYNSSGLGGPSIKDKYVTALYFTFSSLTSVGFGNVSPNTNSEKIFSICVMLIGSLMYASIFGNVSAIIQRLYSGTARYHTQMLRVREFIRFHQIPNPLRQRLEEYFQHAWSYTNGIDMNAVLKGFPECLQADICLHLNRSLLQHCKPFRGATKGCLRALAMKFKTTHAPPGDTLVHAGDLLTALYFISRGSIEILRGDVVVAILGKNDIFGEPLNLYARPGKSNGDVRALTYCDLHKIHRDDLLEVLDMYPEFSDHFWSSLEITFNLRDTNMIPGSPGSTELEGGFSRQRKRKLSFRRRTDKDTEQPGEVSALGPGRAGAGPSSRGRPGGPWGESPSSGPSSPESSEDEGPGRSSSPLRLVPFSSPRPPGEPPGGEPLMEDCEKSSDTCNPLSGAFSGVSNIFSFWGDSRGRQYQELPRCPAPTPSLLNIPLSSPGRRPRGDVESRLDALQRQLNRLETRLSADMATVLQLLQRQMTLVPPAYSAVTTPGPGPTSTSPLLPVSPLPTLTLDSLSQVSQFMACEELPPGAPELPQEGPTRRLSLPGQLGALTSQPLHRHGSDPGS

Row | SMILES | hERG current change (%, negative = inhibition) at 1uM [%]
1 | Cc1ccc(S(=O)(=O)Nc2cccc(Oc3cnccn3)c2)cc1 | -2.34
2 | Cc1ccc(NS(=O)(=O)c2cccc(C(=O)n3ncc(C#N)c3N)c2)c(C)c1 | -5.14
3 | COc1ccc(CNC(=O)c2ccc3c(c2)N(C)C(=O)CS3=O)cc1 (stereo not drawn) | 7.95
4 | COC(=O)CCC(=O)NNC(=O)c1cccc(Cl)c1 | 6.3
5 | Cc1cccc(N2CCN(C(=O)c3ccc(CS(=O)(=O)c4ccccc4C)o3)CC2C)c1 (stereo not drawn) | 1.54
6 | CCOC(=O)Cc1nnc(Nc2ccc(C(=O)NC)cc2)c2ccccc12 | 12.7
7 | Cc1n[nH]c(=O)nc1NCc1ccccc1 | 12.5
8 | Cc1cc(C(=O)N2CCN(Cc3ccccc3)CC2)on1 | 6.76
9 | O=C(Nn1c(C2CCC2)nc2ccccc2c1=O)C1CCC1 | -0.591
10 | Cc1ccc(C(=O)NC(C)c2ccc3c(c2)OCO3)s1 (stereo not drawn) | -5.06
11 | COc1ccc(OC)c(NC(=O)c2ccccc2N(C)S(=O)(=O)c2ccc(C)cc2)c1 | 21.3
12 | COc1ccc(/C=C/C(=O)c2c(O)n(CCC3=CCCCC3)c(=O)[nH]c2=O)cc1OC | 10.1
13 | O=C(/C=C/c1c(Cl)cccc1Cl)NCc1ccccc1 | 13.7
14 | Cc1ccccc1NC(=O)C1C2CCC(O2)C1C(=O)O (stereo not drawn) | 15.7
15 | CCOP(=O)(OCC)C(Nc1cccc(C(F)(F)F)c1)c1ccc(F)cc1 (stereo not drawn) | 4.76
16 | CN(CCO)c1ncnc2nc[nH]c12 | -1.8
17 | CN(c1cccc(NC(=O)CN(c2ccc(F)cc2)S(C)(=O)=O)c1)S(C)(=O)=O | 2.14
18 | CC(=O)c1ccc(OCc2cc(C(=O)NC(C)Cc3ccccn3)no2)cc1 (stereo not drawn) | 3.22
19 | N#C/C(=C(/O)CSc1n[nH]c(N)n1)c1nc2ccccc2[nH]1 | 3.71
20 | S=C(NCCc1ccc(Cl)cc1)NC1CCCCC1 | 7.17
21 | O=C1c2ccccc2C(=O)c2c1cccc2N(CCO)CCO | 13.8
22 | CCCc1cc(C(=O)Cc2ccccn2)c(O)cc1O | 8.83
23 | Cc1cccc(CSc2nnc(-c3ccco3)n2C)c1 | 1.27
24 | CCn1cc(C(=O)OCC(=O)N(C)Cc2ccccc2)c(=O)c2ccc(C)nc21 | 9.83

Row | SMILES | hERG current change (%, negative = inhibition) at 1uM [%]
25 | CSC1=NCCN1C(=O)Cc1ccc(Cl)cc1 | 8.21
26 | COc1ccc(CCC(=O)NNC(=S)Nc2cccc(C(C)=O)c2)cc1 | 11.3
27 | COc1ccc(/C=N\Nc2ccccn2)c(OC)c1 | 14.5
28 | C#CC[N+](CC)(CC)CC#Cc1cccc(Cl)c1.[Br-] | 2.06
29 | O=C(COc1ccccc1Cl)NCCCNC(=O)c1cnccn1 | 6.29
30 | CCOC(=O)c1cc(NC(=O)c2ccc(C)cc2)c(=O)oc1C(F)(F)F | 6.59
31 | CCc1ccccc1NC(=O)c1ccoc1C | 6.07
32 | CCc1nc(SCC(=O)Nc2ccc(N(C)C)cc2)c2ccccc2n1 | 8.74
33 | CCOC(=O)n1c(=O)n(Cc2ccccc2C)c2ccccc21 | 9.15
34 | CC(C)CCN1C(=O)C2(OCCCO2)c2cc(Cl)ccc21 | 16.3
35 | COc1ccccc1CNC(=O)C(=O)NCC1OCCN1S(=O)(=O)c1cccs1 (stereo not drawn) | 7.5
36 | Cc1ccc(OCC(=O)Nc2ccc3c(c2)nc(CCN2CCCCC2)n3C)cc1 | -60
37 | CC1CCCC(C)N1CCCNC(=O)Cn1c(=O)c2cccn2c2cccnc21 (stereo not drawn) | 9.52
38 | O=C(COC(=O)c1cc(=O)[nH]c2ccccc12)Nc1nc(-c2ccccc2)cs1 | 11.6
39 | CC1(C)Nc2ccccc2N(CCC(=O)N2CCOCC2)C1=O | 9.9
40 | CCOC(=O)C1CCN(CC(C)(C)NS(=O)(=O)c2ccc(C)cc2)CC1 | 10.5
41 | CCOC(=O)C1CCCN(Cc2ccc3c(c2)OCO3)C1 (stereo not drawn) | 12.4
42 | Cc1cccc(C(=O)Nc2ccc(S(=O)(=O)Nc3nc(C)cc(C)n3)cc2)c1 | 6.01
43 | CCCn1cc(CN2CCCC(C(=O)c3cccc(OC)c3)C2)c(C)n1 (stereo not drawn) | -14.5
44 | Cc1cccc(NS(=O)(=O)c2csc(C(N)=O)c2)c1 | 14.4
45 | Cc1ccc2c(CSc3nnc(C4CC4)n3N)cc(=O)oc2c1 | 1.13
46 | CCNC(=O)CN1C(=O)NC2(CCCc3cc(OC)ccc32)C1=O (stereo not drawn) | 1.93
47 | CCCn1nnnc1NCc1cccn1C | 3.51
48 | O=C(Nc1ccc(S(=O)(=O)Nc2ccc(Cl)cc2)cc1)C1CCCO1 (stereo not drawn) | 8.93

Row | SMILES | hERG current change (%, negative = inhibition) at 1uM [%]
49 | Cc1sc2ncnc(N3CCC(C(=O)Nc4ccc(Cl)cc4Cl)CC3)c2c1C | 8.36
50 | CCc1ccccc1NC(=O)C1CCCN1C(=O)NCc1ccccc1 (stereo not drawn) | 17.3
51 | CC(C)(Nc1ccccc1)C(=O)c1ccccc1 | 4.37
52 | COc1ccc(C2N(c3ccc(F)cc3)C(=O)C3CCCN32)cc1 (stereo not drawn) | -1.62
53 | COc1ccc2nc(C)cc(SCC(=O)N/N=C/c3ccco3)c2c1 | 4.19
54 | CNc1ncc(C(=O)c2ccc(-c3ccccc3)cc2)s1 | 15.8
55 | O=C(CSc1ccc(-c2ccccn2)nn1)NCc1ccc(Cl)cc1 | 7.67
56 | CCCC(=O)N1CCN(Cc2nc3cc([N+](=O)[O-])ccc3n2C)CC1 | 1.17
57 | N#CCN=C(c1ccccc1)c1ccccc1 | 12.8
58 | Cl.N=c1sccn1CC(=O)Nc1cccc(Oc2ccccc2)c1 | -17.4
59 | COc1ccc(CNC(=O)CNC(=O)c2ccc(C(C)(C)C)cc2)cc1OC | 10.5
60 | CC(SCC(=O)NC(C)C1CC2CCC1C2)C(=O)O (stereo not drawn) | 3.95
61 | COC(=O)c1c(NC(=O)C(C)C)sc2c1CCN(Cc1ccccc1)C2.Cl | 13.8
62 | Cc1nc(C(C)NC(=O)CCc2nnc(Cc3c[nH]c4ccccc34)o2)cs1 (stereo not drawn) | 24.1
63 | Cc1occc1C(=O)n1nnc2ccccc21 | 2.28
64 | Cc1ccc(NC2=C(N3CCCCC3)C(=O)c3ccccc3C2=O)cc1 | 15.4
65 | COc1cccc(C2=CC(c3ccc(OC)c(OC)c3OC)n3nnnc3N2)c1 (stereo not drawn) | 6.38
66 | COc1ccc(CCNC(=O)CCN2C(=O)COc3ccccc32)cc1OC | 9.26
67 | COc1cc(/C=C2\N=C3CCCCCN3C2=O)ccc1O | 10.1
68 | COc1ccccc1/C=C/C(=O)NC(=S)NCC1CCCO1 (stereo not drawn) | 6.12
69 | Cc1cc(OCC(=O)NCc2ccncc2)ccc1Cl | 12.1
70 | O=C(OCn1nnc2ccccc2c1=O)c1ccc(Br)o1 | 6.34
71 | CCN(CC)CCOC(=O)C(Cc1cccc2ccccc12)CC1CCCO1.O=C(O)C(=O)O (stereo not drawn) | -20.2
72 | CCCCOc1ccc(/C=C/C(=O)OCC(=O)NC(=O)NCC(C)C)cc1OCC | 4.95

Row | SMILES | hERG current change (%, negative = inhibition) at 1uM [%]
73 | O=C(Nc1cccc(C(F)(F)F)c1)C1CCN(S(=O)(=O)c2cccnc2)CC1 | 14
74 | COc1ccccc1CNC(=O)C(CC(C)C)NC(=O)C1CCC(C)CC1 (stereo not drawn) | 15.2
75 | C/C(Cn1nc([N+](=O)[O-])cc1C)=N\NC(=O)c1ccc(O)cc1O | 12.7
76 | CC(=O)c1cc(C(=O)Nc2ccc(C(=O)O)cc2)oc1C | 21.5
77 | CCN(CC)C(=O)C(=O)c1cn(CC(=O)NCc2ccc3c(c2)OCO3)c2ccccc12 | 8.59
78 | C/C(=C\c1ccccc1)CN1CCN(C)CC1 | 15
79 | N/C(=N\OC(=O)Cc1ccc(Cl)cc1)c1cccnc1 | -2.59
80 | O/N=C/c1cc(Br)cc(Br)c1OCc1ccccc1 | 13.5
81 | Cc1ccc(NC(=O)C2CCCCC2)cc1C | 0.599
82 | C=CCn1ccc(=NC=C(C#N)C#N)c2ccccc21 | 6.38
83 | COC(=O)CC(NC(=O)c1cccs1)c1ccc(OC)c(OC)c1 (stereo not drawn) | 12.1
84 | COc1cccc(NC(=O)CN(C)CC(=O)c2c(N)n(Cc3ccccc3)c(=O)n(C)c2=O)c1 | 7.16
85 | O=C(Nc1ccc(NC(=O)C2CC2)cc1)c1ccco1 | 21.6
86 | C[C@H](N)c1nnc(SCc2ccc(Cl)cc2Cl)o1.Cl | -11.3
87 | O=C1CCCCN1CCCC(=O)N1CCCC(Nc2ccccc2)C1 (stereo not drawn) | 8.26
88 | O=C(NN=C(Cc1ccccc1)Cc1ccccc1)C1CC1 | 6
89 | COc1cc(C(=O)ON=C2C3CC4CC(C3)CC2C4)cc(OC)c1OC | 25.1
90 | CN(C)S(=O)(=O)c1ccc(Nc2nc(C3CC3)nc3c2nnn3Cc2ccccc2Cl)cc1 | 14.1
91 | CC(C)Cn1nc(C(=O)NCc2ccccc2CN2CCCC2)c2ccccc2c1=O | -6.93
92 | CCc1nc(SCC(=O)N2CCCC2)c2ccccc2n1 | 4.06
93 | COc1ccc(-c2cc(=O)c3ccccc3s2)cc1 | 8.85
